Reference: the supplement of paper PMC11417369
± gives the standard deviation of the averaged measurements. This is one part of the list.

System: PfAP2-G AP2 domain (GST-tagged)
Experiment: gcPBM binding intensity (ln(normalized median fluorescence intensity)); higher = stronger DNA binding
How it was run: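 An Agilent 4 × 180k array carrying primer-extended double-stranded 36-bp intergenic genomic probes and negative controls received GST-tagged P. falciparum DNA-binding domains expressed in E. coli, about 25 μg on average, for 1 h. The binding buffer contained 1× PBS, 1% milk, 0.2 mg/ml BSA, 0.5% salmon testes DNA and 0.03% Triton X-100. Binding intensity is the top Masliner-normalised natural-log median intensity across replicate spots of either probe orientation, read after Alexa488 anti-GST antibody staining and a 488 nm scan.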

Going from “TGTCCTTATGGGCACACACACATATAAGAAATTTAA [CACACA_site3187]” to “TAAAAATAGTATACAACACACGAGGGAAAATAAAGT [CACACA_site3837]”, the “gcPBM binding intensity (ln)” value falls from 10.7 ± 0.3 to 10.34 ± 0.099.

“ATTTTTTTATAAAATTTTTATATATTATATAAATAT [GTGCAC_negctrl_site163]” and “TATCGAGCACGGCGTGTGGAGTTACAAAGAGGAGAA [CACACA_negctrl_site40]” are within error of each other in “gcPBM binding intensity (ln)” value: 9.765 ± 0.021 for the first, 9.89 ± 0.12 for the second.

First: AAATGTATAATATTTTCACACACAAGAAAAAAGAAA [CACACA_site9195]
Second: GCCAATAAAGATGTGGTGCATTATATATATATATAT
The “gcPBM binding intensity (ln)” value of the first is lower: 9.825 ± 0.049 for the first, 10.2 ± 0.3 for the second.

“TATATCTCTTTATTCACACATACGTTTTAAAATAAT [CACACA_site5542]” and “TATAAATAAAGACACACACACACACCGTATAATTAC [CACACA_site7829]” are the same in “gcPBM binding intensity (ln)” value: 10.2 ± 0.13 for the first, 10.19 ± 0.042 for the second.

Going from “TAATAAAACATATATACACACATTAGATATACATAT [CACACA_site6897]” to “TTCCCAACATGATATTGTACATTTAATTATAATTAA [XGTACX_site7029]”, the “gcPBM binding intensity (ln)” value rises from 9.92 ± 0.057 to 11 ± 0.62.

TATTTTTGGTTATGTGTGCACTATGAACAACAAAAT and “TATATTAAAAAAAAATGTACACATATATATATATAT [XGTACX_site4524]” are within error of each other in “gcPBM binding intensity (ln)” value: 10.9 ± 0.57 for the first, 11.5 ± 1.1 for the second.

“ATATTATTAATTTGTTGTACAGTTCTTTATTTATAG [XGTACX_site7932]” and “TATATGTTTGAATATACACACAACATATATATATAT [CACACA_site4066]” are within error of each other in “gcPBM binding intensity (ln)” value: 11.4 ± 0.83 for the first, 10.2 ± 0.65 for the second.

“CCAGGAAAAATTTATTGTACATATATTTTTATGCTC [XGTACX_site7154]” and “TATTTTTAACAGTGCACACATAACTTAATTATATGT [CACACA_site2194]” are within error of each other in “gcPBM binding intensity (ln)” value: 11.1 ± 0.64 for the first, 10.5 ± 0.28 for the second.

“ATTTTCCATATATTTTGTACATATGTATATTTTCCC [XGTACX_site7795]” and “AAATATAAATGGTAATACACATACACACACACATAC [XGTACX_negctrl_site459]” are within error of each other in “gcPBM binding intensity (ln)” value: 10.8 ± 0.25 for the first, 10.6 ± 0.44 for the second.

Compared with “TATAAAAAATTATGTTGTACGTAATATAAAATTTGT [XGTACX_site7122]”, “AATCAAAATAAATTAACACACAATTTTAATATTGTT [CACACA_site10]” is lower in “gcPBM binding intensity (ln)” value: 11.4 ± 0.86 for the first, 9.62 ± 0.15 for the second.

“GTGCATAAATCATACACACACACATATATATATATA [CACACA_site2423]” and “GAAAGAAAATATTAAGTGCATATTTTAATGATACAA [GTGCAC_site9712]” are within error of each other in “gcPBM binding intensity (ln)” value: 10.2 ± 0.37 for the first, 9.955 ± 0.021 for the second.

“ATAAAAATAAAAAAAACACACATACCTTATTTTTGT [CACACA_site5452]” and GTATAAAAGTAACTAGTGCATTACATATGAATAAAA are within error of each other in “gcPBM binding intensity (ln)” value: 9.86 ± 0.21 for the first, 10.2 ± 0.15 for the second.

First: CCTTGCCCCAGGAGTTCACACACATAATAGATTGTC [CACACA_site8138]
Second: TCGAACGTATCATGTGTACACACAAATTGTTTTTTT [CACACA_site8623]
The “gcPBM binding intensity (ln)” value of the first is lower: 10.14 ± 0.064 for the first, 11.6 ± 0.86 for the second.

First: TTTTTATTTTAAAAGAATAATTATCTAATATCTATA [CACACA_negctrl_site371]
Second: AGATATTTTTCTTAAGTACACACTAATTAGAAACTA [CACACA_site7897]
The “gcPBM binding intensity (ln)” value of the first is lower: 9.67 ± 0.16 for the first, 11.3 ± 0.93 for the second.

“AAGGAATAATAATAAATGTAAAGAAAAGCATACTGA [CACACA_negctrl_site36]” and “AAATACCTTATATATACACACTATGTTTTTCTTTTT [CACACA_site4792]” are the same in “gcPBM binding intensity (ln)” value: 9.89 for the first, 9.895 ± 0.007 for the second.

“AACACGCACAGACACACACACAAAAATGATTAAAAA [CACACA_site7195]” and “GACACCTGCATGAAAGTGCAAAATAGAAAAGGAACA [GTGCAC_site9593]” are within error of each other in “gcPBM binding intensity (ln)” value: 10.6 ± 0.67 for the first, 10.1 ± 0.12 for the second.

“TTACCTCTTTGAAATATACACACTAAACATATCAAC [CACACA_site2455]” and “TCAAATTATTAAAATACACACATATTATATATATAT [CACACA_site2530]” are within error of each other in “gcPBM binding intensity (ln)” value: 10.1 ± 0.13 for the first, 9.9 ± 0.099 for the second.

First: AGCAATTTGGGGTGTACACACACCTTATTTAAATTA [CACACA_site1157]
Second: AAAAGAAGAAACAAAACACACACAGTCTTCTTTTCT [CACACA_site9015]
The “gcPBM binding intensity (ln)” value of the first is higher: 11.6 ± 0.83 for the first, 9.9 ± 0.16 for the second.

“TTTATGAGGTTACTATGTACGCAAATTATGTAATAA [XGTACX_site325]” and “ATTTGTGTTATTCGAAGTACGGATCATTTGAAATAA [XGTACX_site2510]” are within error of each other in “gcPBM binding intensity (ln)” value: 11.5 ± 1.1 for the first, 10.9 ± 0.59 for the second.

First: TATTAAAAATACATATGTACTCATAGCATAAAACAT [XGTACX_site8686]
Second: TTTAGCCAATTTTTAAAGTTTAAAAAAGAAAAAAGA [CACACA_negctrl_site118]
The “gcPBM binding intensity (ln)” value of the first is higher: 11.5 ± 0.98 for the first, 9.96 ± 0.5 for the second.

“CAAATATATATTTTCTGTACAAATACAATTAATACT [XGTACX_site2694]” and “CCTTCAATTTACATAACACACATTTAACCATAATAA [CACACA_site2394]” are within error of each other in “gcPBM binding intensity (ln)” value: 10.8 ± 0.36 for the first, 10.2 ± 0.25 for the second.

“CAAATGTAGAAAATGTGTACATAAAAAAAAAAAAAA [XGTACX_site8276]” and “AGTCAATTTTGTGTGTCAACATTTATATAAAGAATG [TGCATGCA_negctrl_site400]” are within error of each other in “gcPBM binding intensity (ln)” value: 11.5 ± 1.2 for the first, 10.4 ± 0.29 for the second.

“TGTGAAAATTATGGGGCATGCAATACTTTAAAAATA [TGCATGCA_site653]” was tested, and the “gcPBM binding intensity (ln)” value was 10.3 ± 0.42.
